Measurements reported in PubChem BioAssay AID493208 (National Center for Advancing Translational Sciences (NCATS), 2011).
Among all 44,000 compounds or so, about 340 (0.77%) were called active. Not shown: some 5% with an inconclusive outcome. Calls come from the whole dose curve; as a rule, active = well fitted inhibition curve with a large enough effect; inconclusive = small, poorly fitted or top-dose-only effect; inactive = flat fitted curve, though single readings scatter. Some of the results follow.

experiment: Acumen qHTS Assay for Inhibitors of the mTORC1 Signaling Pathway in MEF (Tsc2-/-, p53-/-) Cells: Sytravon; settings: phospho-rpS6 immunofluorescence/PI, 24 h; series mostly up to 38.3 µM; activity change, negative = inhibition: at the top concentration; note: nearly all actives have a fitted effect of over 50% in size;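 for activity change, negative = inhibition: plate controls were DMSO for no effect and rapamycin for full effect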
Method in brief: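 Compounds act on Tsc2-/-, p53-/- fibroblasts carrying an empty vector for 24 h before fixation and dual staining for phospho-S6 and DNA (propidium iodide). Values are percentages of cells above a rapamycin-defined pS6/PI threshold.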
Potency is the fitted concentration of half-maximal effect.

SMILES | activity change, negative = inhibition | Potency
CCc1ccc(OCC(=O)N(Cc2ccco2)Cc2ccccc2Cl)cc1 | inactive: -2.44% | 
CCOC(=O)c1cnc2c(ccc3ccccc32)c1Nc1cccc(C(F)(F)F)c1 | inactive: -8.33% | 
Cc1ccc(NC(=O)CCCn2c(=O)c3cccn3c3ccccc32)c(C)c1 | inactive: -4.03% | 
Cc1ccc(C(=O)NCC(c2ccc3c(c2)OCO3)N2CCN(C)CC2)cc1C (centres undefined) | inactive: -8.35% | 
CCc1noc(-c2ccc(NCc3ccccc3)c([N+](=O)[O-])c2)n1 | inactive: 1.41% | 
N=c1c(C(=O)NCC2CCCO2)cc2c(=O)n3ccccc3nc2n1CCCO (centres undefined) | inactive: -13.6% | 
COc1ccc(Cn2c(C(=O)O)c(CNCCc3ccco3)c3ccc(C)cc32)cc1 | inactive: -6.26% | 
COc1ccc(F)cc1S(=O)(=O)NCC(c1ccco1)S(=O)(=O)c1ccc(F)cc1 (centres undefined) | inactive: -4.51% | 
CCOc1cc(C(=O)NCCc2csc3nc(-c4ccccc4F)nn23)cc(OCC)c1OCC | inactive: 5.31% | 
Cc1ccccc1OCC(=O)Nc1ccccc1C(=O)OCc1cc(=O)n2ccsc2n1 | inactive: -14% | 
Cc1cc(C(F)F)n2nc(C(=O)Nc3cccc(Cl)c3C)nc2n1 | inactive: 7.09% | 
COc1ccc2c(c1)c1c(c(=O)n(-c3ccccc3)c(=O)n1CC(=O)NCCC1=CCCCC1)n2C | inactive: -0.18% | 
Cn1ncc2c(NCc3ccccc3Cl)nc(NCCO)nc21 | inactive: 5.94% | 
O=C(Nc1ccc(-n2nncc2-c2ccccc2)cc1)c1cccc(F)c1 | inactive: -25.1% | 
O=C(CN1C(=O)CCn2nc(-c3ccccc3)cc21)NCc1ccc(F)cc1 | inactive: 3.93% | 
CCOc1ccc(CNC(=O)C2CCN(S(=O)(=O)c3cn(C)cn3)CC2)cc1 | inactive: 0% | 
Cc1cc(C)cc(NC(=O)Cn2c(=O)n(-c3cc(C)cc(C)c3)c(=O)c3oc4ccccc4c32)c1 | inactive: -0.168% | 
Cc1nc2ccccc2n2c(-c3ccccc3)c3c(=O)n(C)c(=O)n(C)c3c12 | inactive: 3.48% | 
Cc1ccccc1N(C)S(=O)(=O)c1nnc(NC(=O)c2ccccc2F)s1 | inactive: -7.62% | 
COc1ccc(-n2ccnc2SCC(=O)Nc2nnc(C)s2)cc1 | inactive: -7.15% | 
Cc1ccc(NC(=O)C(=O)NCCc2sc(-c3ccc(Cl)cc3)nc2C)cc1C | inactive: -8.43% | 
COc1cccc(Cn2c(CNC(=O)CCc3ccccc3)nc3cccnc32)c1 | inactive: 0.4% | 
Cc1ccc(S(=O)(=O)NCCc2csc(-c3ccc(Cl)cc3)n2)cc1 | inactive: -9.71% | 
Cc1c(Cl)cccc1NC(=O)CCS(=O)(=O)c1ccc2c(c1)oc(=O)n2C | inactive: 5.25% | 

SMILES | activity change, negative = inhibition | Potency
COc1cccc(CNC(=O)CCn2nc(C)c3c(C)n(-c4ccccc4)nc3c2=O)c1 | inactive: 1% | 
CN(c1ccccc1)S(=O)(=O)c1nnc(NC(=O)C2CCCCC2)s1 | inactive: -2.41% | 
COc1cccc(C(=O)N(Cc2cccnc2)c2nc3c(OC)ccc(C)c3s2)c1OC | inactive: -3.07% | 
CCOC(=O)c1c(C)c(C(=O)NCc2ccc(OC)cc2)c(C)n1CC | inactive: -4.74% | 
COc1ccc(NCc2cc3cc4c(cc3n(CC(=O)Nc3ccc(F)cc3)c2=O)OCCO4)cc1 | inactive: 0.0523% | 
O=C(CSc1nc2ccccc2nc1Cc1ccc(Cl)cc1)N1CCCc2ccccc21 | inactive: -0.567% | 
COC(=O)C(C)Sc1nc2c(cnn2-c2ccc(F)cc2)c(=O)[nH]1 (centres undefined) | inactive: 8.77% | 
CCOc1cc(C2CC(=O)Nc3cc4c(cc32)OCCO4)ccc1O (centres undefined) | inactive: -1.48% | 
Cc1ccc(OCCn2c(CCNC(=O)C3CCCCC3)nc3ccccc32)cc1 | inactive: -2.14% | 
COc1cccc(C(=O)NCc2cn3ccccc3n2)c1 | inactive: -0.988% | 
CCOc1ccc(C(=O)c2cn(CC(=O)Nc3ccc(F)cc3)c3cc4c(cc3c2=O)OCCO4)cc1 | inactive: 5.57% | 
O=C(CSc1nnc(-c2ccccc2)c(-c2ccccc2)n1)NC1CCCC1 | inactive: 7.59% | 
CCOc1ccc(OCC)c(NS(=O)(=O)c2c(C(=O)N3CCCCCC3)c(C)n(C)c2C)c1 | inactive: 2.16% | 
O=C(NCCCO)C(=O)NCC(c1ccc2c(c1)OCO2)N1CCOCC1 (centres undefined) | inactive: -16.5% | 
CCOC(=O)C1CCCN(S(=O)(=O)c2cc3c4c(c2)CC(=O)N4CCC3)C1 (centres undefined) | inactive: 3.59% | 
COc1ccc(C2c3c(oc4ccc(C)cc4c3=O)C(=O)N2CCCN2CCOCC2)cc1OC (centres undefined) | inactive: 0.42% | 
COc1ccc(NC(=O)C2=CC(c3ccc4c(c3)OCO4)=NS(=O)(=O)N2C)cc1 | inactive: -0.281% | 
CCC(C)(C)NC(=O)C1CCN(S(=O)(=O)c2c(C)noc2/C=C/c2ccc(C)cc2)CC1 | inactive: -9.5% | 
CCc1ccc(NC(=O)Cn2c(=O)n(CCCCC(=O)NCCc3ccccc3)c(=O)c3ccccc32)cc1 | inactive: 0.683% | 
COc1ccc(C)cc1NC(=O)C1COc2ccccc2C1 (centres undefined) | inactive: 0.803% | 
Fc1ccc(-n2cc(-c3ccccc3)c3c(NCCc4ccccc4)ncnc32)cc1 | inactive: -7.34% | 
CCOC(=O)c1c(NC(=O)COc2c(C)cc(Cl)cc2Cl)sc2c1CCCC2 | inactive: 4.49% | 
COc1ccc(-c2noc(CC(=O)Nc3ccc(Br)cc3C)n2)cc1 | inactive: -1.95% | 
COc1ccc(S(=O)(=O)NCC(c2ccc(N(C)C)cc2)N2CCCC2)cc1 (centres undefined) | inactive: 8.33% | 

SMILES | activity change, negative = inhibition | Potency
COc1cccc(CNC(=O)c2oc3c(c2C)-c2nn(Cc4cccc(Cl)c4)cc2CC3)c1 | inactive: 5.35% | 
Cc1cc(C)c(/C=C/c2onc(C)c2S(=O)(=O)N2CCC(C(=O)N(C)Cc3ccccc3)CC2)c(C)c1 | inactive: 0.983% | 
Cc1ccc(NC(=O)Nc2nnc(N(C)C3CCCCC3)s2)c(Cl)c1 | inactive: -0.518% | 
Cc1ccc(-n2c(=O)c3c4c(sc3n(Cc3ccccc3C)c2=O)CCC4)cc1C | inactive: -29.9% | 
O=C(Nc1ccc2c(c1)OCO2)c1cc(-c2ccc(Br)cc2)on1 | inactive: -9.32% | 
Cc1ccccc1C(=O)Nc1nc2nc(-c3ccccc3)cc(=O)n2[nH]1 | inactive: -1.89% | 
Clc1cccc(-n2cc(-c3ccccc3)c3c(N4CCCCC4)ncnc32)c1 | inactive: 15.3% | 
CCN1C(C(=O)c2ccccc2)=C(OC(=O)c2ccc(OC)cc2)c2ccccc2S1(=O)=O | inactive: -5.84% | 
Cc1ccc(NC(=O)c2oc3ccc(S(=O)(=O)N4CCCCC4)cc3c2C)cc1Cl | inactive: 6.93% | 
CCN(Cc1ccccc1)C(=O)CCc1c(C)nc2c(c(C)nn2-c2ccc(C)c(C)c2)c1C | inactive: -1.79% | 
Cn1c(=O)c2c(-c3ccc(Br)cc3)n(CCc3ccccc3)cc2n(C)c1=O | inactive: 0.496% | 
O=S(=O)(c1ccc(Br)cc1)c1nc(-c2ccco2)oc1SCc1ccccc1Cl | inactive: 0.876% | 
CCCCOc1ccc(CNC(=O)CN2CCSc3ccccc32)cc1 | inactive: -11.7% | 
Cc1ccc(CCNC(=O)c2nn(C)c3c2CSc2ccccc2-3)cc1 | inactive: 1.48% | 
COc1cccc(CNC(=O)CCn2c(=O)c3cccn3c3ccc(F)cc32)c1OC | inactive: -17.2% | 
COc1ccc(-n2nc(C(=O)N(C)c3cccc(C(F)(F)F)c3)c3c4ccccc4n(C)c3c2=O)cc1 | inactive: -1.65% | 
CCCNC(=O)C1CCC(Cn2c(=O)c3sccc3n(Cc3cccc(OC)c3)c2=O)CC1 (centres undefined) | inactive: -9.05% | 
CCC(C(=O)N1CCN(c2cccc(C)c2C)CC1)n1nc(C)c2sc3ccccc3c2c1=O (centres undefined) | inactive: -18.4% | 
CCn1nnc2cc(C(=O)Nc3cccc(Cl)c3)ccc21 | inactive: 0.465% | 
Cc1nc2nc(NC(=O)c3cccc(Cl)c3)[nH]n2c(=O)c1Cc1ccccc1 | inactive: -2.22% | 
CCOc1ccc(-n2c(-c3ccc(C)cc3)nc3c(cnn3-c3ccccc3)c2=O)cc1 | inactive: 13.4% | 
CCOC(=O)C1CCC(CN(Cc2ccccc2)S(=O)(=O)c2ccc(Cl)cc2)CC1 (centres undefined) | inactive: 0.633% | 
Cc1ccc(NC(=O)CCn2c(=O)c3cccn3c3ccccc32)c(Cl)c1 | inactive: -2.68% | 
COc1ccc(CCNC(=O)CCc2c(C)nc3c(c(C)nn3-c3ccc(C)c(C)c3)c2C)c(OC)c1OC | inactive: -0.496% | 

SMILES | activity change, negative = inhibition | Potency
CCOC(=O)c1c(S(=O)(=O)N2CCC(C(=O)Nc3ccccc3OC)CC2)c(C)n(CC)c1C | inactive: 1.98% | 
COc1ccc(CCNC(=O)Cn2cc(C(=O)c3ccccc3)c(=O)c3ccc(C)nc32)cc1OC | inactive: 5.05% | 
CCOc1ccc(OCC)c(Nc2nc3ccccc3c3nnc(C)n23)c1 | inactive: -5.81% | 
Cc1ccc2c(c1)c1c(c(=O)n(-c3ccccc3)c(=O)n1CC(=O)N1CCCC1)n2C | inactive: 7.47% | 
COc1cccc(N2CC(NC(=O)Cc3cccs3)CC2=O)c1 (centres undefined) | inactive: -0.933% | 
Cc1cc(C)c(Cn2c3ccccc3c3cnn(CC(=O)N4CCCCC4)c(=O)c32)c(C)c1 | inactive: -0.454% | 
Cc1ccccc1C(=O)Nc1ccccc1C(=O)OCc1cc(=O)n2ccsc2n1 | inactive: -3.94% | 
CN1C(=O)CC(=O)N(C)c2cc(S(=O)(=O)N(C)Cc3ccccc3)ccc21 | inactive: -2.09% | 
CCn1cc(C(=O)NCCc2ccc(C)cc2)c(=O)c2cc(S(=O)(=O)N(C)C)ccc21 | inactive: 1.19% | 
CCCCN(CCCC)CCNC(=O)c1cn(C)c2ccc(S(=O)(=O)N3CCOCC3)cc2c1=O | inactive: -10.6% | 
Cc1c(Cl)cccc1NS(=O)(=O)c1ccc2[nH]cc(C(=O)NC3CCCC3)c(=O)c2c1 | inactive: -0.331% | 
Cc1ccc(S(=O)(=O)c2nc(-c3cccs3)oc2N2CCCCC2)cc1 | inactive: -0.171% | 
COc1ccc2c(c1)c1c(c(=O)n(-c3ccc(OC)c(OC)c3)c(=O)n1Cc1ccccc1C)n2C | inactive: -4.83% | 
CC(=O)c1cccc(NS(=O)(=O)c2ccc3[nH]c4c(c3c2)CCCCCC4)c1 | inactive: -6.13% | 
Cc1ccc(-n2ncc(C(=O)NCCN3CCN(C)CC3)c2C2CCN(C(=O)OC(C)(C)C)CC2)c(C)c1 | inactive: -0.675% | 
COc1ccc(OC)c(S(=O)(=O)Nc2cc3c(cc2C)n(C)c(=O)c(=O)n3C)c1 | inactive: -5.52% | 
CN(Cc1ccccc1)C(=O)CN1C(=O)CSc2ccc(S(=O)(=O)N3CCOCC3)cc21 | inactive: 3.82% | 
COc1ccc(NC(=O)CCS(=O)(=O)c2nc(-c3cccs3)cc(C(F)(F)F)n2)cc1OC |  | active: 13.1 µM
COc1ccc(N(C(=O)/C=C\C(=O)Nc2ccc(Cl)cc2)C(C(=O)NCc2ccco2)c2ccc(C)cc2)cc1 (centres undefined) | inactive: -0.549% | 
O=C(c1noc2c1CCCCC2)N1CCN(c2ccc(Cl)cc2)CC1 | inactive: 9.8% | 
COc1ccccc1NC(=O)Cn1c(=O)n(Cc2ccc3c(c2)OCO3)c(=O)c2oc3ccccc3c21 | inactive: -5.33% | 
CCc1ccc(-c2cn3c(n2)sc2cc(C(=O)NCCc4ccc(OC)cc4OC)ccc23)cc1 | inactive: -3.1% | 
